Results on one molecule are retold here after patent US20260263442A1, “METHOD FOR TREATING L-DOPA-INDUCED DYSKINESIA USING BEFIRADOL” (Neurolixis, Inc., priority 2023, published 2026).

Series [1] deals with patients with moderate to severe L-DOPA-induced dyskinesia (LID) in Parkinson's disease. The arrangement: species or system human. To be noted: in vivo.
Series [2] shares this test system. The arrangement: species or system human. The conditions noted are these: in vivo. The source holds these as a separate data set.

As to `Cc1ccc(CNCC2(F)CCN(C(=O)c3ccc(F)c(Cl)c3)CC2)nc1` [NLX-112], the “ECG assessments, changes” value in series [1] was “no changes in HR, PR, QRS, QT, or QTc measures”. In addition, the “Laboratory assessments, changes” value in series [2] is “no clinically significant changes in any clinical chemistry, hematology, urinalysis, or coagulation parameters”.
